Results from the supplement of paper PMC11876631.
± gives the standard deviation of the averaged measurements. Laboratory Escherichia coli strains with one amino-acid change in an essential protein, pooled on minimal glucose agar with carbenicillin or gentamicin at twice the control MIC (plus kanamycin and chloramphenicol for the plasmids), 48 h. Fold change of barcode share against drug-free plates; higher = less susceptible. Active = above 20 in both replicates (the paper's putatively resistant). '<' = one read or none on drug, '>' = one read or none on a drug-free plate. Shares are relative, so most strains fall below 1 when a few take over. Listed are strains with at least 15 reads on both drug-free plates, and hits; most hits rest on fewer reference reads. Replicate rank correlation about 0.5. Edits are read from barcodes.

Molecular target: Escherichia coli (laboratory strain)
Test: barcode share on antibiotic plates over drug-free plates; higher = less susceptible
Procedure: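 A pool of E. coli strains, each edited to carry one amino-acid change in an essential protein, was grown for 48 h on minimal glucose agar with or without antibiotic; strain barcodes were sequenced; mean of two replicates.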

[1] = antibiotic: carbenicillin, 2× MIC (3.1 µg/mL)
[2] = antibiotic: gentamicin, 2× MIC (MIC 0.45 µg/mL)

| Protein | fold change of barcode share [1] | fold change of barcode share [2] |
| --- | --- | --- |
| purA L264A (protein) MGNNVVVLGTQWGDEGKGKIVDLLTERAKYVVRYQGGHNAGHTLVINGEKTVLHLIPSGILRENVTSIIGNGVVLSPAALMKEMKELEDRGIPVRERLLLSEACPLILDYHVALDNAREKARGAKAIGTTGRGIGPAYEDKVARRGLRVGDLFDKETFAEKLKEVMEYHNFQLVNYYKAEAVDYQKVLDDTMAVADILTSMVVDVSDLLDQARQRGDFVMFEGAQGTLLDIDHGTYPYVTSSNTTAGGVATGSGLGPRYVDYVAGILKAYSTRVGAGPFPTELFDETGEFLCKQGNEFGATTGRRRRTGWLDTVAVRRAVQLNSLSGFCLTKLDVLDGLKEVKLCVAYRMPDGREVTTTPLAADDWKGVEPIYETMPGWSESTFGVKDRSGLPQAALNYIKRIEELTGVPIDIISTGPDRTETMILRDPFDA | 0.235 ± 0.16 | < 0.017 |
| purA I414A (protein) MGNNVVVLGTQWGDEGKGKIVDLLTERAKYVVRYQGGHNAGHTLVINGEKTVLHLIPSGILRENVTSIIGNGVVLSPAALMKEMKELEDRGIPVRERLLLSEACPLILDYHVALDNAREKARGAKAIGTTGRGIGPAYEDKVARRGLRVGDLFDKETFAEKLKEVMEYHNFQLVNYYKAEAVDYQKVLDDTMAVADILTSMVVDVSDLLDQARQRGDFVMFEGAQGTLLDIDHGTYPYVTSSNTTAGGVATGSGLGPRYVDYVLGILKAYSTRVGAGPFPTELFDETGEFLCKQGNEFGATTGRRRRTGWLDTVAVRRAVQLNSLSGFCLTKLDVLDGLKEVKLCVAYRMPDGREVTTTPLAADDWKGVEPIYETMPGWSESTFGVKDRSGLPQAALNYIKRIEELTGVPIDIASTGPDRTETMILRDPFDA | 0.249 ± 0.028 | < 0.00889 |
| purA L198D (protein) MGNNVVVLGTQWGDEGKGKIVDLLTERAKYVVRYQGGHNAGHTLVINGEKTVLHLIPSGILRENVTSIIGNGVVLSPAALMKEMKELEDRGIPVRERLLLSEACPLILDYHVALDNAREKARGAKAIGTTGRGIGPAYEDKVARRGLRVGDLFDKETFAEKLKEVMEYHNFQLVNYYKAEAVDYQKVLDDTMAVADIDTSMVVDVSDLLDQARQRGDFVMFEGAQGTLLDIDHGTYPYVTSSNTTAGGVATGSGLGPRYVDYVLGILKAYSTRVGAGPFPTELFDETGEFLCKQGNEFGATTGRRRRTGWLDTVAVRRAVQLNSLSGFCLTKLDVLDGLKEVKLCVAYRMPDGREVTTTPLAADDWKGVEPIYETMPGWSESTFGVKDRSGLPQAALNYIKRIEELTGVPIDIISTGPDRTETMILRDPFDA | 0.476 ± 0.16 | 0.00793 ± 0.0023 |
| purA L198A (protein) MGNNVVVLGTQWGDEGKGKIVDLLTERAKYVVRYQGGHNAGHTLVINGEKTVLHLIPSGILRENVTSIIGNGVVLSPAALMKEMKELEDRGIPVRERLLLSEACPLILDYHVALDNAREKARGAKAIGTTGRGIGPAYEDKVARRGLRVGDLFDKETFAEKLKEVMEYHNFQLVNYYKAEAVDYQKVLDDTMAVADIATSMVVDVSDLLDQARQRGDFVMFEGAQGTLLDIDHGTYPYVTSSNTTAGGVATGSGLGPRYVDYVLGILKAYSTRVGAGPFPTELFDETGEFLCKQGNEFGATTGRRRRTGWLDTVAVRRAVQLNSLSGFCLTKLDVLDGLKEVKLCVAYRMPDGREVTTTPLAADDWKGVEPIYETMPGWSESTFGVKDRSGLPQAALNYIKRIEELTGVPIDIISTGPDRTETMILRDPFDA | 0.821 ± 0.4 | 0.00968 ± 0.0036 |
| purA L198P (protein) MGNNVVVLGTQWGDEGKGKIVDLLTERAKYVVRYQGGHNAGHTLVINGEKTVLHLIPSGILRENVTSIIGNGVVLSPAALMKEMKELEDRGIPVRERLLLSEACPLILDYHVALDNAREKARGAKAIGTTGRGIGPAYEDKVARRGLRVGDLFDKETFAEKLKEVMEYHNFQLVNYYKAEAVDYQKVLDDTMAVADIPTSMVVDVSDLLDQARQRGDFVMFEGAQGTLLDIDHGTYPYVTSSNTTAGGVATGSGLGPRYVDYVLGILKAYSTRVGAGPFPTELFDETGEFLCKQGNEFGATTGRRRRTGWLDTVAVRRAVQLNSLSGFCLTKLDVLDGLKEVKLCVAYRMPDGREVTTTPLAADDWKGVEPIYETMPGWSESTFGVKDRSGLPQAALNYIKRIEELTGVPIDIISTGPDRTETMILRDPFDA | 0.446 ± 0.038 | < 0.00835 |
| purA L264Q (protein) MGNNVVVLGTQWGDEGKGKIVDLLTERAKYVVRYQGGHNAGHTLVINGEKTVLHLIPSGILRENVTSIIGNGVVLSPAALMKEMKELEDRGIPVRERLLLSEACPLILDYHVALDNAREKARGAKAIGTTGRGIGPAYEDKVARRGLRVGDLFDKETFAEKLKEVMEYHNFQLVNYYKAEAVDYQKVLDDTMAVADILTSMVVDVSDLLDQARQRGDFVMFEGAQGTLLDIDHGTYPYVTSSNTTAGGVATGSGLGPRYVDYVQGILKAYSTRVGAGPFPTELFDETGEFLCKQGNEFGATTGRRRRTGWLDTVAVRRAVQLNSLSGFCLTKLDVLDGLKEVKLCVAYRMPDGREVTTTPLAADDWKGVEPIYETMPGWSESTFGVKDRSGLPQAALNYIKRIEELTGVPIDIISTGPDRTETMILRDPFDA | 0.304 ± 0.062 | < 0.009 |
| purA L198W (protein) MGNNVVVLGTQWGDEGKGKIVDLLTERAKYVVRYQGGHNAGHTLVINGEKTVLHLIPSGILRENVTSIIGNGVVLSPAALMKEMKELEDRGIPVRERLLLSEACPLILDYHVALDNAREKARGAKAIGTTGRGIGPAYEDKVARRGLRVGDLFDKETFAEKLKEVMEYHNFQLVNYYKAEAVDYQKVLDDTMAVADIWTSMVVDVSDLLDQARQRGDFVMFEGAQGTLLDIDHGTYPYVTSSNTTAGGVATGSGLGPRYVDYVLGILKAYSTRVGAGPFPTELFDETGEFLCKQGNEFGATTGRRRRTGWLDTVAVRRAVQLNSLSGFCLTKLDVLDGLKEVKLCVAYRMPDGREVTTTPLAADDWKGVEPIYETMPGWSESTFGVKDRSGLPQAALNYIKRIEELTGVPIDIISTGPDRTETMILRDPFDA | 0.496 ± 0.2 | < 0.0114 |
| purA I414Q (protein) MGNNVVVLGTQWGDEGKGKIVDLLTERAKYVVRYQGGHNAGHTLVINGEKTVLHLIPSGILRENVTSIIGNGVVLSPAALMKEMKELEDRGIPVRERLLLSEACPLILDYHVALDNAREKARGAKAIGTTGRGIGPAYEDKVARRGLRVGDLFDKETFAEKLKEVMEYHNFQLVNYYKAEAVDYQKVLDDTMAVADILTSMVVDVSDLLDQARQRGDFVMFEGAQGTLLDIDHGTYPYVTSSNTTAGGVATGSGLGPRYVDYVLGILKAYSTRVGAGPFPTELFDETGEFLCKQGNEFGATTGRRRRTGWLDTVAVRRAVQLNSLSGFCLTKLDVLDGLKEVKLCVAYRMPDGREVTTTPLAADDWKGVEPIYETMPGWSESTFGVKDRSGLPQAALNYIKRIEELTGVPIDIQSTGPDRTETMILRDPFDA | 0.411 ± 0.084 | < 0.00974 |
| purA L198Q (protein) MGNNVVVLGTQWGDEGKGKIVDLLTERAKYVVRYQGGHNAGHTLVINGEKTVLHLIPSGILRENVTSIIGNGVVLSPAALMKEMKELEDRGIPVRERLLLSEACPLILDYHVALDNAREKARGAKAIGTTGRGIGPAYEDKVARRGLRVGDLFDKETFAEKLKEVMEYHNFQLVNYYKAEAVDYQKVLDDTMAVADIQTSMVVDVSDLLDQARQRGDFVMFEGAQGTLLDIDHGTYPYVTSSNTTAGGVATGSGLGPRYVDYVLGILKAYSTRVGAGPFPTELFDETGEFLCKQGNEFGATTGRRRRTGWLDTVAVRRAVQLNSLSGFCLTKLDVLDGLKEVKLCVAYRMPDGREVTTTPLAADDWKGVEPIYETMPGWSESTFGVKDRSGLPQAALNYIKRIEELTGVPIDIISTGPDRTETMILRDPFDA | 0.55 ± 0.27 | 0.00868 ± 0.0065 |
| purA L264W (protein) MGNNVVVLGTQWGDEGKGKIVDLLTERAKYVVRYQGGHNAGHTLVINGEKTVLHLIPSGILRENVTSIIGNGVVLSPAALMKEMKELEDRGIPVRERLLLSEACPLILDYHVALDNAREKARGAKAIGTTGRGIGPAYEDKVARRGLRVGDLFDKETFAEKLKEVMEYHNFQLVNYYKAEAVDYQKVLDDTMAVADILTSMVVDVSDLLDQARQRGDFVMFEGAQGTLLDIDHGTYPYVTSSNTTAGGVATGSGLGPRYVDYVWGILKAYSTRVGAGPFPTELFDETGEFLCKQGNEFGATTGRRRRTGWLDTVAVRRAVQLNSLSGFCLTKLDVLDGLKEVKLCVAYRMPDGREVTTTPLAADDWKGVEPIYETMPGWSESTFGVKDRSGLPQAALNYIKRIEELTGVPIDIISTGPDRTETMILRDPFDA | 0.321 ± 0.19 | < 0.00784 |
| purA I414W (protein) MGNNVVVLGTQWGDEGKGKIVDLLTERAKYVVRYQGGHNAGHTLVINGEKTVLHLIPSGILRENVTSIIGNGVVLSPAALMKEMKELEDRGIPVRERLLLSEACPLILDYHVALDNAREKARGAKAIGTTGRGIGPAYEDKVARRGLRVGDLFDKETFAEKLKEVMEYHNFQLVNYYKAEAVDYQKVLDDTMAVADILTSMVVDVSDLLDQARQRGDFVMFEGAQGTLLDIDHGTYPYVTSSNTTAGGVATGSGLGPRYVDYVLGILKAYSTRVGAGPFPTELFDETGEFLCKQGNEFGATTGRRRRTGWLDTVAVRRAVQLNSLSGFCLTKLDVLDGLKEVKLCVAYRMPDGREVTTTPLAADDWKGVEPIYETMPGWSESTFGVKDRSGLPQAALNYIKRIEELTGVPIDIWSTGPDRTETMILRDPFDA | 0.319 ± 0.16 | < 0.00953 |
